± gives the standard deviation of the averaged measurements. Most values come without repeats; read them as rough.
Assays:
CHO-K1 [1] = assay: micronucleus frequency (% of nucleated events); higher = more micronuclei (genotoxic)
CHO-K1 [2] = assay: hypodiploid nuclei frequency (% of nucleated events); higher = more hypodiploid events (aneugenic)
Description: (§1)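 Flow-cytometric in vitro micronucleus assay (Litron MicroFlow) in CHO-K1 cells in 96-well plates, 19 concentrations (4.5-200 µM, n=1 per concentration). Without S9, cells were exposed for 24 h and sampled at 48 h. With Aroclor 1254-induced rat liver S9, cells were exposed for 3-4 h and sampled at 27-28 h. Read-outs are %MN and %hypodiploid nuclei relative to nucleated events, and relative survival as the nuclei-to-bead ratio versus the 1% DMSO vehicle control (x100).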

CHO-K1 [3] = assay: relative survival (nuclei to bead ratio vs DMSO control) (% of vehicle control); higher = more surviving cells
Description: as §1
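For hypodiploid nuclei frequency (% of nucleated events) in this document: hypodiploid nuclei gated on a flow cytometer with 488 nm excitation after SYTOX Green staining, cultures at 37 °C, positive controls vinblastine without S9 and cyclophosphamide with S9.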
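For micronucleus frequency (% of nucleated events) in this document: cells lysed with nuclei stained by SYTOX Green, then micronucleus-gated events counted against nucleated events by flow cytometry with 488 nm excitation.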
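For relative survival (nuclei to bead ratio vs DMSO control) in this document: Lysed-cell nuclei stained with SYTOX Green and counted against counting beads by flow cytometry at 488 nm excitation, with vinblastine (no S9) and cyclophosphamide (plus S9) as positive controls.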

COC(=O)c1ccccc1C(=O)OC [Dimethyl phthalate]
Conditions	hypodiploid nuclei frequency, CHO-K1 [2] [%]	micronucleus frequency, CHO-K1 [1] [%]	relative survival, CHO-K1 [3]
concentration: 4.5 (µM), S9 metabolic activation: with S9, exposure time: 3-4 hours	0.27 ± 0.042	1.44 ± 0.28	135 ± 27
concentration: 4.5 (µM), S9 metabolic activation: without S9, exposure time: 24 hours	0.44 ± 0.085	1.34 ± 0.37	112.4 ± 0.71
concentration: 5.63 (µM), S9 metabolic activation: with S9, exposure time: 3-4 hours	0.31 ± 0.042	1.2 ± 0.11	103.7 ± 0.18
concentration: 5.63 (µM), S9 metabolic activation: without S9, exposure time: 24 hours	0.46 ± 0.028	1.32 ± 0.54	114 ± 1.7
concentration: 7.04 (µM), S9 metabolic activation: with S9, exposure time: 3-4 hours	0.28 ± 0.085	2.16 ± 1.1	107 ± 40
concentration: 7.04 (µM), S9 metabolic activation: without S9, exposure time: 24 hours	0.42 ± 0.11	1.49 ± 0.24	119 ± 16
concentration: 8.8 (µM), S9 metabolic activation: with S9, exposure time: 3-4 hours	0.21 ± 0.099	1.42 ± 0.28	91.4 ± 4.6
concentration: 8.8 (µM), S9 metabolic activation: without S9, exposure time: 24 hours	0.63 ± 0.16	1.27 ± 0.64	117 ± 6.5
concentration: 11 (µM), S9 metabolic activation: with S9, exposure time: 3-4 hours	0.25 ± 0.071	2.01 ± 0.44	104.6 ± 0.43
concentration: 11 (µM), S9 metabolic activation: without S9, exposure time: 24 hours	0.53 ± 0.18	1.38 ± 0.37	109 ± 8.9
concentration: 13.7 (µM), S9 metabolic activation: with S9, exposure time: 3-4 hours	0.22 ± 0.085	1.37 ± 0.099	101 ± 4
concentration: 13.7 (µM), S9 metabolic activation: without S9, exposure time: 24 hours	0.64 ± 0.11	1.4 ± 0.085	117 ± 5.3
concentration: 17.2 (µM), S9 metabolic activation: with S9, exposure time: 3-4 hours	0.27 ± 0.18	1.39 ± 0.47	103 ± 18
concentration: 17.2 (µM), S9 metabolic activation: without S9, exposure time: 24 hours	0.37 ± 0.21	1.18 ± 0.34	118 ± 28
concentration: 21.5 (µM), S9 metabolic activation: with S9, exposure time: 3-4 hours	0.19 ± 0.042	1.21 ± 0.042	100 ± 7.5
concentration: 21.5 (µM), S9 metabolic activation: without S9, exposure time: 24 hours	0.56 ± 0.17	1.3 ± 0.51	107 ± 11
concentration: 26.8 (µM), S9 metabolic activation: with S9, exposure time: 3-4 hours	0.31 ± 0.014	1.24 ± 0.085	120 ± 12
concentration: 26.8 (µM), S9 metabolic activation: without S9, exposure time: 24 hours	0.47 ± 0.071	1.4 ± 0.057	95.8 ± 29
concentration: 33.6 (µM), S9 metabolic activation: with S9, exposure time: 3-4 hours	0.16	1.42 ± 0.48	108 ± 16
concentration: 33.6 (µM), S9 metabolic activation: without S9, exposure time: 24 hours	0.4 ± 0.26	1.73 ± 0.52	91.8 ± 8.5
concentration: 41.9 (µM), S9 metabolic activation: with S9, exposure time: 3-4 hours	0.28 ± 0.085	1.36 ± 0.085	114 ± 38
concentration: 41.9 (µM), S9 metabolic activation: without S9, exposure time: 24 hours	0.53 ± 0.014	1.5 ± 0.057	95.9 ± 21
concentration: 52.4 (µM), S9 metabolic activation: with S9, exposure time: 3-4 hours	0.31 ± 0.014	1.11 ± 0.16	90.7 ± 7.6
concentration: 52.4 (µM), S9 metabolic activation: without S9, exposure time: 24 hours	0.55 ± 0.099	1.29 ± 0.21	103 ± 39
concentration: 65.5 (µM), S9 metabolic activation: with S9, exposure time: 3-4 hours	0.29 ± 0.014	1.3 ± 0.42	98 ± 20
concentration: 65.5 (µM), S9 metabolic activation: without S9, exposure time: 24 hours	0.61 ± 0.13	1.65 ± 0.014	110 ± 9
concentration: 81.9 (µM), S9 metabolic activation: with S9, exposure time: 3-4 hours	0.29 ± 0.099	1.75 ± 0.24	92.4 ± 3.5
concentration: 81.9 (µM), S9 metabolic activation: without S9, exposure time: 24 hours	0.51 ± 0.042	1.42 ± 0.62	106 ± 24
concentration: 102 (µM), S9 metabolic activation: with S9, exposure time: 3-4 hours	0.31 ± 0.24	1.85 ± 0.86	98.6 ± 18
concentration: 102 (µM), S9 metabolic activation: without S9, exposure time: 24 hours	0.82 ± 0.028	1.65 ± 0.58	82.3 ± 23
concentration: 128 (µM), S9 metabolic activation: with S9, exposure time: 3-4 hours	0.27 ± 0.014	1.24 ± 0.31	91.1 ± 9.1
concentration: 128 (µM), S9 metabolic activation: without S9, exposure time: 24 hours	0.75 ± 0.21	1.92 ± 0.57	114 ± 34
concentration: 160 (µM), S9 metabolic activation: with S9, exposure time: 3-4 hours	0.29 ± 0.099	1.43 ± 0.18	84.6 ± 19
concentration: 160 (µM), S9 metabolic activation: without S9, exposure time: 24 hours	0.78 ± 0.42	1.93 ± 0.44	106 ± 21
concentration: 200 (µM), S9 metabolic activation: with S9, exposure time: 3-4 hours	0.2 ± 0.085	1.49 ± 0.3	100 ± 7.8
concentration: 200 (µM), S9 metabolic activation: without S9, exposure time: 24 hours	0.97 ± 0.33	2.15 ± 0.099	99.7 ± 21

COC(=O)c1ccc(C(=O)OC)cc1 [Dimethyl terephthalate]
Conditions	hypodiploid nuclei frequency, CHO-K1 [2] [%]	micronucleus frequency, CHO-K1 [1] [%]	relative survival, CHO-K1 [3]
concentration: 4.5 (µM), S9 metabolic activation: with S9, exposure time: 3-4 hours	0.28	1.5	95.6
concentration: 4.5 (µM), S9 metabolic activation: without S9, exposure time: 24 hours	2.16	1.68	95.5
concentration: 5.63 (µM), S9 metabolic activation: with S9, exposure time: 3-4 hours	0.48	2.06	100
concentration: 5.63 (µM), S9 metabolic activation: without S9, exposure time: 24 hours	1.28	1.74	101
concentration: 7.04 (µM), S9 metabolic activation: with S9, exposure time: 3-4 hours	0.48	1.7	95.4
concentration: 7.04 (µM), S9 metabolic activation: without S9, exposure time: 24 hours	1.4	1.94	109
concentration: 8.8 (µM), S9 metabolic activation: with S9, exposure time: 3-4 hours	0.36	3.06	96.7
concentration: 8.8 (µM), S9 metabolic activation: without S9, exposure time: 24 hours	1.66	1.62	109
concentration: 11 (µM), S9 metabolic activation: with S9, exposure time: 3-4 hours	0.38	1.96	111
concentration: 11 (µM), S9 metabolic activation: without S9, exposure time: 24 hours	1.22	1.66	111
concentration: 13.7 (µM), S9 metabolic activation: with S9, exposure time: 3-4 hours	0.28	1.82	94.1
concentration: 13.7 (µM), S9 metabolic activation: without S9, exposure time: 24 hours	1.5	1.42	88.8
concentration: 17.2 (µM), S9 metabolic activation: with S9, exposure time: 3-4 hours	0.22	1.8	88.3
concentration: 17.2 (µM), S9 metabolic activation: without S9, exposure time: 24 hours	1.14	2.04	105
concentration: 21.5 (µM), S9 metabolic activation: with S9, exposure time: 3-4 hours	0.34	1.68	99
concentration: 21.5 (µM), S9 metabolic activation: without S9, exposure time: 24 hours	1.34	1.86	105
concentration: 26.8 (µM), S9 metabolic activation: with S9, exposure time: 3-4 hours	0.3	1.46	99
concentration: 26.8 (µM), S9 metabolic activation: without S9, exposure time: 24 hours	9.24	1.9	78.3
concentration: 33.6 (µM), S9 metabolic activation: with S9, exposure time: 3-4 hours	0.22	1.76	83.6
concentration: 33.6 (µM), S9 metabolic activation: without S9, exposure time: 24 hours	5.42	2.18	75.1
concentration: 41.9 (µM), S9 metabolic activation: with S9, exposure time: 3-4 hours	0.46	1.84	68.9
concentration: 41.9 (µM), S9 metabolic activation: without S9, exposure time: 24 hours	3.32	1.86	83.4
concentration: 52.4 (µM), S9 metabolic activation: with S9, exposure time: 3-4 hours	0.18	1.6	97.8
concentration: 52.4 (µM), S9 metabolic activation: without S9, exposure time: 24 hours	2.24	1.8	75.6
concentration: 65.5 (µM), S9 metabolic activation: with S9, exposure time: 3-4 hours	0.22	1.7	86.5
concentration: 65.5 (µM), S9 metabolic activation: without S9, exposure time: 24 hours	1.6	1.56	89.2
concentration: 81.9 (µM), S9 metabolic activation: with S9, exposure time: 3-4 hours	0.32	1.42	81.2
concentration: 81.9 (µM), S9 metabolic activation: without S9, exposure time: 24 hours	1.64	1.84	89.2
concentration: 102 (µM), S9 metabolic activation: with S9, exposure time: 3-4 hours	0.28	1.78	83.8
concentration: 102 (µM), S9 metabolic activation: without S9, exposure time: 24 hours	2	1.84	104
concentration: 128 (µM), S9 metabolic activation: with S9, exposure time: 3-4 hours	0.44	1.9	85.5
concentration: 128 (µM), S9 metabolic activation: without S9, exposure time: 24 hours	1.74	2.26	98.5
concentration: 160 (µM), S9 metabolic activation: with S9, exposure time: 3-4 hours	0.28	1.68	80.2
concentration: 160 (µM), S9 metabolic activation: without S9, exposure time: 24 hours	1.92	2.06	104
concentration: 200 (µM), S9 metabolic activation: with S9, exposure time: 3-4 hours	0.16	2.06	84.1
concentration: 200 (µM), S9 metabolic activation: without S9, exposure time: 24 hours	1.74	2.76	84.2
